Source: publication PMC4336329 (PLoS ONE, 2015)
The whole screen tested about 310,000 compounds, of which about 2,200 (0.71%) showed an effect of 50% or more. Effects have a minus sign here. Some of the results follow.

These molecules were tested against human ether-à-go-go-related gene (hERG) potassium channel (human, UniProt Q12809) (assay: primary screen, population patch clamp on CHO cells stably expressing hERG).
Sequence of human ether-à-go-go-related gene (hERG) potassium channel (Q12809 whole entry, looked up): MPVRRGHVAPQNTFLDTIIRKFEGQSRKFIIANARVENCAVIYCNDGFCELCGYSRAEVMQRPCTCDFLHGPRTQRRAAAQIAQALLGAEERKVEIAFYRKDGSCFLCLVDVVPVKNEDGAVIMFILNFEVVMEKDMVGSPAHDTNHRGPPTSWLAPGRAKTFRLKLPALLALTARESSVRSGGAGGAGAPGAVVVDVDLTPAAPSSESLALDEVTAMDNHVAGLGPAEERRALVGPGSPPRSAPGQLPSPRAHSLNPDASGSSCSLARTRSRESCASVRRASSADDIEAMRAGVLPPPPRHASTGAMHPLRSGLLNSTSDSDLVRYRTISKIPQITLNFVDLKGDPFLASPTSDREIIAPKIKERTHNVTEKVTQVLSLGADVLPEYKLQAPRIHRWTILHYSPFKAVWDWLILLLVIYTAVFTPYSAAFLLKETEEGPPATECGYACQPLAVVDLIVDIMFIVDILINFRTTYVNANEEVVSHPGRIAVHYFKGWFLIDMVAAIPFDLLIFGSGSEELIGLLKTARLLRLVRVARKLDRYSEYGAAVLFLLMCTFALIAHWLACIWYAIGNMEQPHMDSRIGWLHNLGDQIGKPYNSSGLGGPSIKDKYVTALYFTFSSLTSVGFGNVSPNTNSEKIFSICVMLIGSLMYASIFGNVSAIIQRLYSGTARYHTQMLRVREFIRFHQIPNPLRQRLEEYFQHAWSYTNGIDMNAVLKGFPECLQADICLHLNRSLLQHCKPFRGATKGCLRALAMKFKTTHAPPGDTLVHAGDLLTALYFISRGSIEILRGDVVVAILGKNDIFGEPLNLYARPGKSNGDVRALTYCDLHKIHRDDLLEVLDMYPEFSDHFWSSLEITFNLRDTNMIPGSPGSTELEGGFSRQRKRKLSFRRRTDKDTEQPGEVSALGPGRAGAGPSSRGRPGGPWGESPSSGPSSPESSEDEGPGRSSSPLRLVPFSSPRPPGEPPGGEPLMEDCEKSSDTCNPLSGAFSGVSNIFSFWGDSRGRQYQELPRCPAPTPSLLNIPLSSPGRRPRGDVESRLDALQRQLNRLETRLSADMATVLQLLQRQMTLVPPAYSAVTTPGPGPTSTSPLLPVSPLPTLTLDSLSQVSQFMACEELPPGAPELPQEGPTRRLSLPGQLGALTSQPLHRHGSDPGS

Point of comparison: `Nc1c(Cl)cc(C(=O)c2c3ccc(C(F)(F)F)cc3[n+]([O-])n2CCC[NH3+])cc1Cl.[Cl-]`, “hERG current change (%, negative = inhibition) at 1uM” value -37.3%. Against it:
- CC1CCCN(C(=O)Cn2nnc(-c3cccnc3)n2)C1 (centres unmarked) — higher, 0.118%
- CCCN(Cc1nnc(-c2cccs2)o1)C(=O)CN1C(=O)NC2(CCC(C)CC2)C1=O (centres unmarked) — higher, -20.9%
- CCOCCCNC(=O)C(NC(=O)c1ccc(NC(C)=O)cc1)c1ccccc1 (centres unmarked) — higher, 4.68%
- CC(=O)c1cccc(S(=O)(=O)NCCC(=O)O)c1 — higher, 28%
- COc1ccc(NS(=O)(=O)c2ccc3oc(SCC(N)=O)nc3c2)cc1 — higher, 12.8%
- CCOC(=O)C1(C)Oc2cccnc2NC1=O (centres unmarked) — higher, 18.9%
- CCOC(=O)N1CCN(c2cc(C)c(C(C)=O)cc2F)CC1 — higher, 13.1%
- COc1ccc([C@H]2CC(=O)C=C(c3cccc(CO)c3)C2)cc1 — higher, -4.79%
- CCC(=O)N1CCN=C1SCc1ccc(Cl)cc1 — higher, -4.17%
- COc1cccc(CCNC(=O)CC2C(=O)NCCN2Cc2ccc(C)o2)c1 (centres unmarked) — higher, 15.7%
- NC(=O)CNC(=O)[C@@H]1CC2(CC(c3ccccc3)=NO2)CN1C(=O)c1ccc(Br)cc1 (some centres unmarked) — higher, 7.97%
- CN(CCC#N)C(=O)COC(=O)C1c2ccccc2Oc2ccccc21 — higher, 3.21%
- COc1ccc(-n2ncc3c2CC(C)(C)CC3NC(=O)CCn2cncn2)cc1 (centres unmarked) — higher, -5.06%
- CCN1CC(CNC(=O)c2ccc3nc(Cc4cccc(Cl)c4)oc3c2)CC1=O (centres unmarked) — higher, 8.38%
- O=C(NCC(=O)N(c1ccccc1F)C(C(=O)NCC1CCCO1)c1ccccc1)c1ccco1 (centres unmarked) — higher, 5.88%
- CCOc1ccc(S(=O)(=O)N2CCCC(C(=O)N3CCN(c4ccccc4)CC3)C2)cc1 (centres unmarked) — higher, -22.3%
- CC1CCC2C(=O)N(c3ccc(NC4CCN(Cc5ccccc5)CC4)c([N+](=O)[O-])c3)C(=O)C2C1 (centres unmarked) — higher, 8.68%
- Clc1ccc(Cl)c(-c2nn3c(COc4ccccc4)nnc3s2)c1 — higher, -2.31%
- COC(=O)C1=C(C)N(Cc2ccco2)C(=O)N[C@H]1c1ccc(Br)cc1 — higher, 15%
- O=C(NCCOCCNC(=O)OCc1ccccc1)OCc1ccccc1 — higher, 4.83%
- CC(=O)c1cccc(NC(=O)N2CCC(c3nnc(SCC(N)=O)n3C)CC2)c1 — higher, 12.4%
- Cc1onc(-c2ccccc2)c1CNS(=O)(=O)c1ccc(F)cc1F — higher, 5.25%
